Reference: the supplement of paper PMC12217912
The list shows a part of the results. The full chains were built here from the parent and the listed change. Inactive controls read about 0.05.

B1: TEV protease; numbered along this chain (parent)
chain: MGESLFKGPRDYNPISSSICHLTNESDGHTTSLYGIGFGPFIITNKHLFRRNNGTLVVQSLHGVFKVKDTTTLQQHLVDGRDMIIIRMPKDFPPFPQKLKFREPQREERICLVTTNFQTKSMSSMVSDTSCTFPSGDGIFWKHWIQTKDGQCGSPLVSTRDGFIVGIHSASNFTNTNNYFTSVPKNFMELLTNQEAQQWVSGWRLNADSVLWGGHKVFMVKPEEPFQPVKEATQL

Variants of: B1
Test: raw area under fraction-flipped curve 0-4 h after induction (AUC4h, not background-subtracted), DNA-recorder readout of cleavage of the substrate (dimensionless); higher = more cleavage of the substrate by the protease variant
Settings: temperature: 34 °C; time window: 0-4 h after rhamnose induction
Method: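 In vivo DNA recorder in E. coli TOP10(DE3) ΔrhaA at 34 °C. Each TEVp single-site mutant (parent TEVp 0) is paired with a single-site variant of the 7-mer TEVs (canonical ENLYFQ|S). The substrate sits between flexible linkers in a Bxb1-sfGFP-TEVs-SsrA fusion, so cleavage stabilises Bxb1 and speeds flipping of a recombination array, read by NGS. The value is the raw area under the fraction-flipped curve over 0-4 h after rhamnose induction (AUC4h), with ≥20 reads per time point. It is not background-subtracted; inactive controls average about 0.047.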
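Note: Bxb1 expression induced with 0.2% (w/v) L-rhamnose at OD600 near 0.5, cultures sampled hourly, flipped fraction per protease–substrate barcode pair counted by paired-end Illumina sequencing.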

Row | Variant | area with substrate ENLYAQS | area with substrate ENLYDQS | area with substrate ENLYGQS | area with substrate ENLYHQS | area with substrate ENLYKQS | area with substrate ENLYLQS | area with substrate ENLYNQS | area with substrate ENLYPQS | area with substrate ENLYQQS | area with substrate ENLYTQS | area with substrate ENLYVQS | area with substrate ENLYCQS | area with substrate ENLYEQS | area with substrate ENLYIQS | area with substrate ENLYMQS | area with substrate ENLYRQS | area with substrate ENLYSQS | area with substrate ENLYWQS | area with substrate ENLYYQS
1 | H215N | 0.0671 | 0.0613 | 0.0604 | 0.0808 | 0.0455 | 0.047 | 0.0723 | 0.0609 | 0.0734 | 0.0665 | 0.0597 |  |  |  |  |  |  |  | 
2 | M219P | 0.05 | 0.065 | 0.0572 | 0.0552 | 0.0586 | 0.0589 | 0.0604 | 0.0516 | 0.0599 | 0.0708 | 0.0713 | 0.0441 | 0.0715 | 0.0676 | 0.0487 | 0.0657 | 0.0562 | 0.075 | 0.0935
3 | F218T | 0.0703 | 0.0618 | 0.0616 | 0.0544 |  |  | 0.0581 | 0.0581 |  |  | 0.101 |  |  | 0.0947 | 0.0553 | 0.0379 |  | 0.0715 | 
4 | L191V | 0.0603 | 0.0502 | 0.0658 | 0.077 |  |  | 0.0663 | 0.0646 | 0.0604 | 0.0708 | 0.11 |  | 0.0658 | 0.118 | 0.0811 | 0.0611 |  | 0.0731 | 0.0599
5 | V220L | 0.0544 | 0.0597 | 0.0773 | 0.0558 | 0.0675 |  | 0.0685 | 0.0731 | 0.0661 |  | 0.114 | 0.0767 | 0.0691 | 0.145 | 0.0815 | 0.0634 | 0.0773 | 0.107 | 0.0611
6 | V220Y | 0.0724 | 0.0594 |  | 0.0645 | 0.029 | 0.063 | 0.053 | 0.0584 |  |  | 0.115 |  | 0.0809 | 0.0829 | 0.0796 | 0.0585 |  |  | 
7 | V217G | 0.0726 | 0.0549 |  |  |  | 0.0841 | 0.0517 | 0.0621 |  |  | 0.0538 | 0.0552 | 0.0642 | 0.0409 | 0.0687 |  |  | 0.0385 | 
8 | R204A | 0.124 | 0.0718 | 0.0654 | 0.0662 | 0.0703 |  |  | 0.0721 | 0.0378 |  | 0.116 |  | 0.0624 | 0.139 | 0.1 | 0.0593 | 0.0839 | 0.0804 | 
9 | E195G | 0.073 | 0.0705 |  |  | 0.0404 | 0.0903 | 0.0697 |  | 0.069 |  | 0.103 |  | 0.0652 | 0.116 | 0.0711 | 0.0659 | 0.0875 | 0.0834 | 0.0765
10 | L205A | 0.0697 | 0.0533 | 0.0603 | 0.0684 | 0.106 | 0.0809 | 0.0654 | 0.0405 | 0.0568 |  |  |  | 0.0602 |  | 0.0606 | 0.0622 | 0.0798 | 0.0624 | 
11 | W203K | 0.0787 | 0.0658 | 0.0533 | 0.061 | 0.0662 |  |  | 0.0603 |  | 0.0609 | 0.0597 | 0.0637 | 0.0634 |  | 0.0584 | 0.0574 | 0.0581 | 0.0612 | 0.0654
12 | E189R | 0.0667 | 0.0606 | 0.0689 |  | 0.0598 |  | 0.0671 | 0.0627 | 0.104 | 0.088 | 0.107 | 0.0717 | 0.0848 | 0.106 | 0.0811 | 0.0525 | 0.0754 |  | 0.0627
13 | E189P | 0.0484 | 0.0789 | 0.0628 | 0.0699 | 0.0545 |  |  | 0.0828 | 0.0694 |  | 0.0975 |  | 0.0443 |  | 0.0796 |  |  |  | 
14 | Q197E | 0.0531 | 0.0568 | 0.0766 |  | 0.0682 | 0.0739 | 0.0657 |  | 0.0646 | 0.0687 | 0.093 | 0.0721 |  | 0.128 | 0.075 |  | 0.0543 | 0.071 | 
15 | N206K | 0.0765 |  |  |  | 0.0385 |  |  |  |  | 0.0613 |  |  |  |  | 0.0708 |  |  | 0.066 | 0.0857
16 | N206I | 0.075 | 0.0732 |  | 0.0651 |  |  | 0.0496 |  |  |  |  |  | 0.0506 |  | 0.0635 | 0.0627 | 0.0686 | 0.0778 | 0.0539
17 | Q194V | 0.0813 |  | 0.0599 | 0.0701 | 0.0813 |  | 0.0757 |  |  |  |  |  | 0.0735 |  |  | 0.0543 |  |  | 
18 | Q194M | 0.0727 | 0.0488 | 0.069 | 0.0531 | 0.0425 | 0.117 | 0.0766 |  |  |  |  | 0.0802 | 0.0809 |  |  | 0.0652 | 0.102 |  | 
19 | W199I | 0.0692 | 0.0702 | 0.0562 |  |  |  |  |  |  |  |  | 0.068 |  |  | 0.0635 |  |  | 0.0641 | 0.069
20 | W199M | 0.0639 |  | 0.0495 | 0.0656 | 0.0311 |  | 0.0617 | 0.0634 | 0.0625 | 0.0641 | 0.0707 | 0.0747 | 0.0532 | 0.0624 | 0.0606 | 0.0652 |  |  | 0.0552
21 | W199V | 0.0466 | 0.072 | 0.0517 | 0.0568 | 0.0599 |  |  | 0.0589 |  |  | 0.0682 | 0.0581 |  |  |  | 0.0596 | 0.0488 | 0.0621 | 
22 | N193W | 0.0671 | 0.0609 |  | 0.04 | 0.0614 |  |  |  |  |  | 0.0962 |  | 0.0637 | 0.0912 |  | 0.0494 |  |  | 
23 | M188D | 0.0694 | 0.0613 | 0.0651 | 0.0688 | 0.0502 |  | 0.0646 |  | 0.0664 | 0.0714 | 0.0942 |  |  | 0.118 | 0.103 | 0.0703 | 0.0777 | 0.0839 | 0.0768
24 | L211S | 0.0908 | 0.0814 | 0.0587 | 0.0844 | 0.047 |  | 0.0545 |  | 0.0478 |  | 0.156 |  |  | 0.198 | 0.0999 |  |  |  | 
25 | L211F | 0.0817 | 0.0617 |  | 0.0583 | 0.0755 |  | 0.0589 |  |  |  | 0.12 |  | 0.069 |  |  | 0.0637 |  | 0.0834 | 
26 | L211K | 0.0734 |  | 0.081 | 0.0922 | 0.0662 |  |  |  |  | 0.0672 |  |  | 0.0759 | 0.124 |  |  |  |  | 0.0439
27 | A207L | 0.0591 | 0.0653 | 0.0696 | 0.0657 | 0.0708 | 0.0862 |  |  |  |  | 0.0679 |  | 0.0545 |  |  | 0.0402 |  |  | 
28 | A207D | 0.117 | 0.0646 | 0.0654 | 0.0677 | 0.0456 | 0.115 | 0.0585 | 0.0736 | 0.0811 |  | 0.128 |  | 0.067 | 0.125 | 0.073 |  | 0.0676 | 0.0771 | 0.0552
29 | N186Q | 0.0804 | 0.0639 |  | 0.0063 |  |  |  |  |  |  |  | 0.0842 |  | 0.119 |  |  |  | 0.0543 | 0.0618
